Reference: PubChem BioAssay AID624417 (National Center for Advancing Translational Sciences (NCATS), 2012)
In all, about 410,000 compounds went through this assay and about 6,400 (1.6%) were called active. Inconclusive results, whose numbers are uncertain, are shown with a selection of clear calls. Calls come from the whole dose curve; as a rule, active = well fitted inhibition curve with a large enough effect; inconclusive = small, poorly fitted or top-dose-only effect; inactive = no such curve, though single readings can be large or run the other way. No potency is given beside an inconclusive call; the fits are too rough.

Molecular target: Glucagon-like peptide 1 receptor (Homo sapiens) (UniProt P43220)
Assay: qHTS of GLP-1 Receptor Inverse Agonists (Inhibition Mode); note: nearly all actives have a fitted effect of over 55% in size
Conditions: HEK293 GLP-1R CRE-luciferase, luminescence, 24 h, GLP-1R form is constitutively active; activity change, negative = inhibition: at 38.3 µM (top of the series) unless noted
Outline: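 Stable HEK293 clone (constitutively active GLP-1R + cAMP-response luciferase); 200 cells/uL plated, 12 h pre-culture, compound 24 hr, 37 deg C/5% CO2; detection reagent 12 min RT; luminescence.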
% is set by controls: 0 for no effect and ±100 for the full control effect; potency is the fitted concentration of half-maximal effect; tags give direction and shape of the fitted curve.

UniProt P43220, sequence (P43220 whole entry, looked up): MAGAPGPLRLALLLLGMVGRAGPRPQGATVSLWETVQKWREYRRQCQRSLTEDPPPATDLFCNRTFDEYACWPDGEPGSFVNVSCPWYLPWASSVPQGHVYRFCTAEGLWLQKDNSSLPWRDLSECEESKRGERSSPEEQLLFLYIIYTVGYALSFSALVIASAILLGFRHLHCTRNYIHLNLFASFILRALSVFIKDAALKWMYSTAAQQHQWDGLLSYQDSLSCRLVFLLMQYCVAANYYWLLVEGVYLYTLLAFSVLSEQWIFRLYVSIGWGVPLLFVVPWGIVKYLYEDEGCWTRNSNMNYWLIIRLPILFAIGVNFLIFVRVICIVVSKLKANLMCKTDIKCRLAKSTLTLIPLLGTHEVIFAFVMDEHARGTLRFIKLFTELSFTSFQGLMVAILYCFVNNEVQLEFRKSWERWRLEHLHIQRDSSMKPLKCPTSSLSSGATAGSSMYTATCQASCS

| SMILES | Potency | activity change, negative = inhibition |
| --- | --- | --- |
| CC(C)/C(=N\NS(=O)(=O)c1ccc(Br)cc1)c1cccs1 | inconclusive [inhibitor, partial curve, poor fit] | – |
| CC1(c2ccc(OC(F)F)cc2)NC(=O)N(CC(=O)Nc2ccc(Cl)cc2F)C1=O (configuration not stated) | inconclusive [inhibitor, partial curve, poor fit] | – |
| O=C(Cc1ccc(S(=O)(=O)N2CCOCC2)s1)NCCC(c1ccccc1)c1ccccc1 | inconclusive [inhibitor, single point] | – |
| Oc1ccccc1/C=N/NC(=S)NC1CC2C=CC1C2 (configuration not stated) | active: 7.94 µM | – |
| NS(=O)(=O)c1ccc(CNC(=S)Nc2ccc(F)c(Cl)c2)cc1 | inconclusive [inhibitor, partial curve, poor fit] | – |
| COc1ccc(NC(=O)C2CCCN(S(=O)(=O)c3cccs3)C2)cc1OC (configuration not stated) | inactive | – |
| COc1cc(OC)cc(C(=O)N2CCN(C(=O)c3ccc(-c4ccccc4)cc3)CC2)c1 | inconclusive [inhibitor, partial curve] | – |
| COc1cc(C2c3c(-c4ccccc4O)n[nH]c3C(=O)N2Cc2ccco2)cc(OC)c1OC (configuration not stated) | inactive | – |
| COc1cccc(-c2nnc(SCC(=O)OC(C)C)n2Cc2ccco2)c1 | inactive | – |
| O=C(Nc1cccc2ccccc12)N1CCN(Cc2ccc3c(c2)OCO3)CC1 | inactive | – |
| Fc1ccccc1NC(=S)N1CCN(C/C=C/c2ccccc2)CC1 | inconclusive [inhibitor, partial curve, poor fit] | – |
| O=C(NCC(c1cccnc1)N1CCN(c2ccccc2F)CC1)OCc1ccccc1 (configuration not stated) | inconclusive [inhibitor, partial curve, poor fit] | – |
| O=C(NCCCN1CCOCC1)c1cccc(S(=O)(=O)Nc2ccccc2Cl)c1 | inconclusive [inhibitor, partial curve] | – |
| Cc1ccc(-c2nnc(N3CCN(C(=O)COc4cccc(C)c4)CC3)c3ccccc23)cc1 | inconclusive [inhibitor, single point] | – |
| O=C(N/N=C/c1cccc(Br)c1)c1ccc(Br)cc1 | inconclusive [inhibitor, partial curve] | – |
| CCc1nc2c(OCC(=O)C(C)(C)C)cccn2c1N(C)C(=O)CC(C)C | inactive | – |
| Cc1ccc(C(=O)OC2OC(=O)C(Cl)=C2N2CCOCC2)cc1 (configuration not stated) | inactive | – |
| COc1cc(C(=S)N2CCOCC2)cc(OC)c1OC(=O)c1cccc(C)c1 | inconclusive [inhibitor, single point] | – |
| O=C(Nc1ccc(-n2cccn2)cc1)C1CCCCN1Cc1cccc2cccnc12 (configuration not stated) | inconclusive [inhibitor, single point] | – |
| COC(=O)c1ccccc1S(=O)(=O)N1CCC(C(=O)OCC(=O)NCC(F)(F)F)CC1 | inactive | – |
| O=C(COc1cccc(C(F)(F)F)c1)NNC(=O)Cc1ccc(S(=O)(=O)N2CCOCC2)s1 | inconclusive [inhibitor, single point] | – |

| SMILES | Potency | activity change, negative = inhibition |
| --- | --- | --- |
| O=C(c1ccco1)N1CCN(C(c2ccccc2F)c2nnnn2Cc2cccs2)CC1 (configuration not stated) | inconclusive [inhibitor, full curve] | – |
| CCOc1ccc(-n2nc3c(SCCN4CCCC4)nnc(C)c3c2C)cc1 | inconclusive [inhibitor, partial curve, poor fit] | – |
| COC(=O)C1CC23C=CCN4CCC5(c6ccccc6NC15C2C)C43 (configuration not stated) | inconclusive [inhibitor, full curve, poor fit] | – |
| CC1(C)CC(O)CC(C)(C)N1CC(O)COCc1ccccc1 (configuration not stated) | inactive | – |
| Cc1cccc(NC(=O)C2CCN(S(=O)(=O)c3ccc4[nH]c5c(c4c3)CCCCC5)CC2)c1 | inconclusive [inhibitor, single point] | – |
| O=C(Nc1cccc(C(=O)N2CCCCC2)c1)C1CC1 | inactive | – |
| CCC(=O)Nc1ccccc1C(=O)OCc1ccc(C(=O)c2ccccc2)cc1 | inconclusive [inhibitor, single point] | – |
| Cc1cc(C)c(S(=O)(=O)NCC(c2cccnc2)N2CCN(Cc3ccccc3)CC2)c(C)c1 (configuration not stated) | inconclusive [inhibitor, partial curve, poor fit] | – |
| Cn1c(N)c(C(=O)COC(=O)C2(c3ccccc3F)CCCC2)c(=O)n(C)c1=O | inconclusive [inhibitor, partial curve, poor fit] | – |
| CC1=NN(c2ccccc2)C(=O)C1C(=O)c1ccc(Cl)cc1 (configuration not stated) | inconclusive [inhibitor, single point] | – |
| COc1cc(OC)c2c(-c3cccc(-c4cccc(C)c4)c3)cc(=O)oc2c1 | inconclusive [inhibitor, partial curve, poor fit] | – |
| O=C(NC1CCN(Cc2ccccc2)CC1)c1cccc(Br)c1 | – | inconclusive: -52.8% [inhibitor] |
| Cc1ccc(Cc2c(-c3ccc(F)cc3)nc3ccc(Cl)cn23)cc1 | inconclusive [inhibitor, single point] | – |
| COc1cccc(NC(=O)CCSc2nc(-c3ccco3)cc(C(F)(F)F)n2)c1 | inconclusive [inhibitor, single point] | – |
| Cc1[nH]n(-c2ccccc2)c(=O)c1/C=N/NC(=O)c1ccc(O)cc1O | inconclusive [inhibitor, single point] | – |
| O=C(CSc1nc(-c2ccccc2)ns1)N1CCOCC1 | inactive | – |
| Cc1ccc(NC(=O)c2cc3nc(C)cc(C)n3n2)cc1 | inconclusive [inhibitor, single point] | – |
| CC(=O)OC1(C(C)=O)CCC2C3CC(Cl)C4=CC(=O)CCC4(C)C3CCC21C (configuration not stated) | inconclusive [inhibitor, partial curve, poor fit] | – |
| COc1ccc(CCN(Cc2ccccn2)C(=S)Nc2ccccc2Cl)cc1OC | inactive | – |
| CN1CCN(C(=O)C[C@@H]2CC[C@@H]3[C@H](COC[C@@H](O)CN3Cc3cccc(Cl)c3)O2)CC1 | inactive | – |
| CCOc1ccccc1C(=O)Nc1ccccc1-c1ccccc1 | inconclusive [inhibitor, partial curve, poor fit] | – |
